Data on 60 compounds can be found in PubChem BioAssay AID485344 (National Center for Advancing Translational Sciences (NCATS), 2010).

SMILES strings stand for the structures. Hit rate of the full screen: of about 340,000 compounds, about 6,900 (2%) were called active. No stated cut-off is given here; in the data, active means inhibition above about 30%; inactive means below that, where a call was filed. The list shows a part of the results, in another mix than the full data. Where no call is shown, the source filed none.

Sequence of UniProt P14416 (P14416 whole entry, looked up): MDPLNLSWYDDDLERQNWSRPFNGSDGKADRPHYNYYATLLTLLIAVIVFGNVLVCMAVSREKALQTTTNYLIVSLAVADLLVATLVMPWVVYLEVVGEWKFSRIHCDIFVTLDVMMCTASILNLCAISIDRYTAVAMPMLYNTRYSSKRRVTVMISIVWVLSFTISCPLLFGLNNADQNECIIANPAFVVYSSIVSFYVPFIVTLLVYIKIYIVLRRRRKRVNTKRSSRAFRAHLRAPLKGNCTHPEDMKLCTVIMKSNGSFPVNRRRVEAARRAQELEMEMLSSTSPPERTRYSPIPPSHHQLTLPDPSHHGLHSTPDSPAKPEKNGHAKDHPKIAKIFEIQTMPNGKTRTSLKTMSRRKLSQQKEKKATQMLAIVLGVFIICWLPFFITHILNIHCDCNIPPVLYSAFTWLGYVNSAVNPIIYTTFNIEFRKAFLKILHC

This test has as its target D(2) dopamine receptor (Homo sapiens) (UniProt P14416). As to the kind of experiment: HTS Assay for Allosteric Antagonists of the Human D2 Dopamine Receptor: Primary Screen for Antagonists. Further: 0% is about no effect. The following applies: HEK293 TREx D2 cells, calcium flux, dopamine EC80; at 10 µM; stronger effect = higher value. A digest of the protocol:
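Inhibition of EC80 dopamine-driven calcium flux, recorded kinetically, defines activity here; cells are a tetracycline-induced HEK293 T-REx line expressing force-coupled D2.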
On to `Cc1nn2c(=O)cc(COC(=O)c3ccccc3NC(=O)c3cccs3)nc2s1`, for which the inhibition is 24.3%.
For the compound `CCc1ccccc1NS(=O)(=O)c1ccc2c(c1)CCCN2C(=O)C1CCC1`, the inhibition is -3.85%.
For `CC(C)NC(=O)c1ccc2c(c1)N(Cc1cccc(Cl)c1)C(=O)c1ccccc1S2=O` (stereo not given), the inhibition was determined as 16.2%.
With `COc1ccc(NC(=O)CN2CCN(Cc3ccccc3Cl)S2(=O)=O)cc1Cl` the figure was 14.6%; with `COCc1nnc(NC(=O)c2ccc(OC)cc2OC)s1`, active: 39.4%.
On to `CCCN1C(=O)C(O)(CC(=O)c2ccc(C(C)C)cc2)c2ccccc21` (stereo not given), for which the inhibition is 9.27%.
With `COC(=O)c1sc2c(c1C)c(=O)n(-c1ccccc1)c(=O)n2CC(=O)Nc1cccc(C)c1` the figure was 13.1%; with `CC(C)c1ccc(NS(=O)(=O)c2cc(Br)cc3c2N(C(=O)C2CC2)CC3)cc1`, -1.02%.
The value for `COc1ccc(OC)c(-c2noc(N3CCN(c4ccc(Cl)cc4)CC3)n2)c1` was -16.2%; that for `Cn1cnc(S(=O)(=O)N2CCCC(C(=O)NCc3ccc(F)cc3)C2)c1` (stereo not given) was 19.9%; that for `Cc1ccc(S(=O)(=O)N(CCc2ccccc2)CC(=O)Nc2ccccc2C)cc1` was 0.519%.
The value for `Cc1ccc(C(=O)N2CCn3c4c(c5cc(C)ccc53)CCCC42)cc1` (stereo not given) was 10%; that for `CCOc1ccc(NC(=O)C(=O)NCCc2csc(-c3ccc(C(F)(F)F)cc3)n2)cc1` was 8.38%; that for `Cc1cc(C)cc(NS(=O)(=O)c2ccc3[nH]cc(C(=O)NCCc4ccccc4)c(=O)c3c2)c1` was 1.34%.
As to `Cc1cc(NC(=O)Nc2nnc(N3CCCCCC3)s2)ccc1Br`, the inhibition is -3.86%.
With `Cc1ccc(CNC(=O)c2ccc(Nc3nc4ccccc4n4nnnc34)cc2)cc1` the figure was 15.5%; with `Cc1ccc(-c2nn(-c3ccccc3)c3c2cnc2ccccc23)cc1C`, 17.9%; with `OC1(c2ccc(Cl)cc2)CCN(Cc2cn[nH]c2-c2ccc(F)cc2)CC1`, active: 56.4%.
Consider `O=C(COc1ccc(Cl)cc1)Nc1nnc(S(=O)(=O)N2CCCCCC2)s1`, for which the inhibition stood at 12.4%.
With `CCOc1cccc(CC(=O)N2CCc3c([nH]c4ccc(OC)cc34)C2c2ccc(F)cc2)c1OCC` (stereo not given) the figure was 9.74%.
The value for `CC(=O)N1CCCc2cc(S(=O)(=O)N3CCC(C(=O)Nc4ccc(C)cc4Cl)CC3)ccc21` was 1.99%; that for `CCCCOc1ccc(C2C(C(=O)Nc3ccccc3OC)=C(C)Nc3nnnn32)cc1OC` (stereo not given) was 10.2%.
As for `Cc1ccn2c(Nc3ccc4c(c3)OCCO4)c(-c3ccccc3O)nc2c1`, the inhibition was -5.01%.
With `Cc1ccc(S(=O)(=O)n2nc(C)c(S(=O)(=O)N3CCCCCC3)c2C)cc1C` the figure was 2.58%.
The value for `COc1ccccc1N1CCN(C(CNC(=O)C(=O)NCc2cccnc2)c2cccnc2)CC1` (stereo not given) was -27.7%; that for `CCN(CC)CCCNC(=O)CCC(=O)NNc1nc2ccccc2c2nc(C)nn12` was 4.67%; that for `CCOC(=O)c1c(NC(=O)c2cc(-c3ccc(OC)c(OC)c3)on2)sc(C)c1C` was 8.52%.
With `Cc1ccccc1CNC(=O)CSc1nnc(C)c2c(C)n(-c3ccccc3)nc12` the figure was 18%.
For `CCOc1ccccc1NC(=O)c1ccc(F)c(S(=O)(=O)N2CCN(c3ccc(F)cc3)CC2)c1`, the inhibition was 11.4%.
With `COc1ccc(Nc2nc3ccc(Cl)cc3nc2-n2nc(C)cc2C)cc1` the figure was -4.6%; with `CCOc1ccc(C(=O)NCC(c2cccs2)S(=O)(=O)c2ccccc2)cc1` (stereo not given), -6.27%.
`Cc1cccc(C(=O)N2CCc3cc(CNC(=O)CSc4ccccc4)ccc32)c1`: the inhibition was -1.1%.
As for `CCOc1ccc(NC(=O)c2cc(C)nc3c2c(C)nn3-c2ccc(C)cc2)cc1`, the inhibition was 15.6%.
With `CCOc1ccc(C(=O)NCCSc2c(C)[nH]c3ccccc23)cc1OCC` the figure was 7.92%.
With `COc1cccc(C(=O)Oc2c(Sc3ccc(C)cc3)c(C)nn2C(C)(C)C)c1OC` the figure was 0.583%; with `CCOC(=O)C1=CN(Cc2ccc(OC)cc2)C=C(C(=O)OCC)C1c1cccs1`, active: 42.1%; with `COc1ccc(NC(=O)c2cc(S(=O)(=O)N3CCCC3)ccc2OC)cc1`, 1.72%.
With `COC(=O)c1ccccc1NC(=O)CN1C(=O)COc2ccc(Cl)cc21` the figure was 6.19%; with `CC(C)Cc1nn2c(=O)cc(COC(=O)c3ccc(NC(=O)C4CCCCC4)cc3)nc2s1`, 6.23%.
As to `COc1ccccc1N1CCN(C2CCCN(Cc3cc(F)cc(F)c3)C2)CC1` (stereo not given), the inhibition was active: 40.9%.
Turning to `CCN(CCCNC(=O)c1nn(-c2ccc(C)cc2)c(=O)c2c1c1ccccc1n2C)c1cccc(C)c1`, the inhibition turned out to be 10.7%.
For the compound `CCc1ccc2c(CN3CCc4cc(OC)c(OC)cc4C3)cc(=O)oc2c1`, the inhibition was active: 31.6%.
Take `COc1cccc(CNC(=O)CN2C(=O)COc3ccc(S(=O)(=O)N4CCOCC4)cc32)c1`: the inhibition was 9.69%.
The value for `Cc1cccc(NC(=O)CN2C(=O)C(c3ccc(F)cc3)=NC23CCCCCC3)c1` was 12.5%.
The value for `Cc1ccc2c(c1)-c1c(c(C(=O)N3CCN(c4cc(C)ccc4C)CC3)nn1C)CS2` was -1.7%; that for `Cc1ccc(CNC(=O)c2ccc(N3CCCC3)c(NC(=O)Nc3ccc(F)c(Cl)c3)c2)cc1` was 7.47%; that for `CC(=O)c1c(C)oc2c1cc(NS(=O)(=O)c1ccc(C(C)(C)C)cc1)c1ccccc12` was 0.415%.
`COc1ccc(NC(=O)Cn2c(=O)c3ccccc3n3nncc23)c(OC)c1`: the inhibition was -22.8%.
Take `O=C(CSc1ncnc2scc(-c3ccccc3)c12)N1CCN(Cc2ccc3c(c2)OCO3)CC1`: the inhibition was active: 69.7%.
With `Cc1ccc(CNC(=O)C(C)n2nc(C)c3sc4ccccc4c3c2=O)cc1` (stereo not given) the figure was 11.7%; with `Cc1cc(C)c(NC(=O)Cn2c(=O)n(Cc3ccc(C(=O)NCc4ccc5c(c4)OCO5)cc3)c(=O)c3ccccc32)c(C)c1`, -5.97%; with `Cc1ccc2nc(-c3ccc(Cl)s3)c(Nc3ccc4c(c3)OCCO4)n2c1`, 3.38%.
Take `COc1cccc(-n2c(SCc3ccc(F)cc3)nc3c([nH]c4ccccc43)c2=O)c1`: the inhibition is 9.06%.
The value for `COC(=O)c1ccc(NC(=O)CN(C)S(=O)(=O)c2ccc(Br)s2)cc1` was -5.91%.
On to `Cc1nn2c(C)c(C(=O)NCc3ccc(OC(C)C)cc3)cnc2c1-c1ccc(F)cc1`, for which the inhibition is -9.68%.
The value for `Cc1ccc(/C=C/C(=O)Nc2nc(-c3cccs3)ns2)cc1` was -4.34%; that for `COc1ccc(-n2cc(C(=O)N(CCN(C)C)Cc3ccccc3)c3ccccc3c2=O)cc1` was -14%.
The value for `COc1cc(C(=O)N(Cc2ccc(F)cc2)Cc2ccco2)cc(OC)c1OC` was -16.8%; that for `Cc1ccc(N(CC(=O)Nc2cccc(Cl)c2C)S(=O)(=O)c2c(C)noc2C)cc1` was -15.7%.
With `CCn1c(C)c(C)c2cc(C(=O)NCCCN3CCCCC3C)ccc21` (stereo not given) the figure was -10.4%.
